The text below walks through data of PubChem BioAssay AID463173 (ICCB-Longwood Screening Facility, Harvard Medical School, 2010).

Molecules are shown by their SMILES. In all, about 52,000 compounds went through this assay and about 4,300 (8.3%) were called active. Rule as the data show it: active = survival mostly below about 52% (no sharp cut-off); inactive = mostly above about 56%. The list shows a part of the results.

The experiment concerns DeltatarO mutant. Kind of experiment: S. aureus survival, RN4220 and DeltatarO strains – OD600, teichoic acid synthesis inhibitors, primary screen (AID 463173). As to conditions: S. aureus RN4220 wild type/DeltatarO growth, OD600, 18 h, stronger effect = lower value, screened at 18.75 µg/mL (by protocol).
For the compound `COc1ccc(C(=O)NCCn2cc(SCC(=O)Nc3ccc4c(c3)OCCO4)c3ccccc32)cc1OC`, the survival is inactive: 84%.
Under `CCOC(=O)c1c(Oc2ccc(C(C)=O)cc2)nnc(-c2ccccc2)c1-c1ccccc1` stands inactive: 67%; under `CC(C)NC(=O)Cn1ccc2ccc(C#N)cc21`, inactive: 86%.
In the case of `Cn1c(SCC(=O)Nc2nc3ccccc3s2)ncc(C(=O)Nc2ccc(F)cc2)c1=O`, the survival is inactive: 67%.
The figure for `COc1cccc(C(=O)Nc2cccc(C(=O)OCc3cc(=O)n4c(C)csc4n3)c2)c1` is inactive: 128%.
For the compound `NS(=O)(=O)c1ccc2nc(NC(=O)COc3ccc(Cl)cc3Cl)sc2c1`, the survival was inactive: 89%.
The figure for `COCCNC(=O)c1ccc2c(c1)N=C(C)c1cc(C)ccc1S2` is inactive: 69%; for `CCOC(=O)c1c(-c2cccs2)csc1NC(=O)C(F)(F)F` it is inactive: 70%; for `Cc1c(C(=O)NC(C)c2ccccc2)sc2nc3n(c(=O)c12)CCCC3` (stereo unspecified) it is inactive: 87%.
The figure for `CCOC(=O)COc1ccc(C)cc1C(=O)c1ccn2nc(-c3ccc(F)cc3)cc2n1` is inactive: 69%.
The figure for `CC1CCN(C(=O)c2cccc(NC(=O)c3nsc4ccccc34)c2)CC1` is inactive: 92%; for `COc1ccc2c(CNCc3cccs3)c(C(=O)O)n(Cc3ccccc3F)c2c1` it is inactive: 96%.
On to `O=C(NCc1ccccc1)c1ccc2oc(=O)n(Cc3ccccc3)c2c1`, for which the survival is inactive: 72%.
Under `C=CCc1cccc2cc(NC(C)=O)c(=O)oc12` stands inactive: 76%; under `CCCN1C2=C(C(=O)CCC2)C(c2ccc(F)cc2)C2=C1c1ccccc1C2=O` (stereo unspecified), inactive: 89%.
Under `COc1ccc(CC(=O)N2CCc3cc(OC)c(OC)cc3C2COc2ccc(F)cc2)cc1OC` (stereo unspecified) stands inactive: 75%; under `CN(C)c1ccc(NC(=O)CSC2=Nc3ccccc3C3=NC(CCC(=O)NCc4cccs4)C(=O)N23)cc1` (stereo unspecified), inactive: 75%.
The figure for `COc1ccccc1NC(=O)Cn1c(=O)c(CNc2ccc(C)cc2)cc2cc3c(cc21)OCCO3` is inactive: 58%; for `Cc1cccc(N2C(=O)CSC23C(=O)N(CC(=O)NCc2ccccc2Cl)c2ccccc23)c1` (stereo unspecified) it is inactive: 116%.
With `COc1ccc(CCNC(=O)C(=O)NCC(c2ccco2)S(=O)(=O)c2ccccc2)cc1` (stereo unspecified), the survival was inactive: 82%.
As for `COCCCn1c(SCC(=O)N(Cc2ccco2)c2nccs2)nc2sc3c(c2c1=O)CCC3`, the survival was inactive: 83%.
Take `COc1ccc(-c2nnc3n2N(C(C)=O)C(c2ccc(Cl)c(Cl)c2)=C(C(C)=O)S3)cc1`: the survival is active: 20%.
The figure for `COc1ccc(N2CC(C(=O)NCc3nnnn3-c3ccc(C)c(C)c3)CC2=O)cc1` (stereo unspecified) is inactive: 69%.
Under `Cc1cccc(NC(=O)c2ccc3c(c2)CCN3S(=O)(=O)c2ccccc2)c1C` stands active: 38%; under `Cc1ccc(NC(=O)Nc2sc3nc4n(c(=O)c3c2C)CCC(C)CC4)c(Cl)c1` (stereo unspecified), inactive: 110%; under `COc1cccc(OC)c1C(=O)Nc1nc2c(s1)CCc1ccccc1-2`, inactive: 60%.
Regarding `Cc1nc2c(c(C)c1CCC(=O)NCc1ccc(Cl)cc1)c(=O)n(C)c(=O)n2C`, the survival was inactive: 91%.
The figure for `CC(CNC(=O)CN1C(=O)c2cccnc2Oc2ccc(Cl)cc21)c1ccccc1` (stereo unspecified) is inactive: 90%.
The figure for `COC(=O)c1ccc(NC(=O)N2CCN(Cc3cc(=O)n4nc(-c5ccc(C)cc5)sc4n3)CC2)cc1` is inactive: 89%; for `O=C1C2C3C=CC(C3)C2C(=O)N1c1ccc(Cl)cc1` (stereo unspecified) it is inactive: 70%; for `O=C(NC12CC3CC(CC(C3)C1)C2)N1CCC(O)(c2ccc3c(c2)OCO3)CC1` it is inactive: 81%.
Under `CC1SC2(C(=O)Nc3ccccc32)N(c2ccccc2)C1=O` (stereo unspecified) stands inactive: 94%; under `COc1ccc2cc3cc(C(=O)N4CCN(c5ccccc5F)CC4)oc3nc2c1`, inactive: 53%.
For the compound `O=c1[nH]c(=O)n(C2CCCCC2)c(O)c1C1=Nc2ccccc2SC(c2ccc(Cl)cc2)C1` (stereo unspecified), the survival is inactive: 50%.
The figure for `COc1cccc(C2=CC(c3cc(Br)ccc3F)n3nnnc3N2)c1` (stereo unspecified) is active: -2%; for `O=C(CCc1ccccc1)NCc1ccc2c(c1)OCO2` it is inactive: 57%; for `CCCOc1ccc(C2CC(=O)Nc3c2c(C)nn3-c2nncc(-c3cccc(OC)c3)n2)cc1OC` (stereo unspecified) it is inactive: 46%.
Under `CCCS(=O)(=O)N1CC(=O)N(c2ccc(C)cc2)C(C)(C(=O)NC2CCCCCC2)C1` (stereo unspecified) stands inactive: 75%; under `O=C(NCCc1ccccc1Cl)c1ccc2c(=O)n(-c3ccccc3)c(=O)[nH]c2c1`, inactive: 85%.
The figure for `CCOc1ccccc1CN1CCc2nc(Nc3ccc4c(c3)OCCO4)ncc2C1` is inactive: 62%.
For the compound `O=C(O)c1cccc(Nc2nc(-c3ccccn3)cs2)c1`, the survival is inactive: 80%.
Under `COCC(=O)NCc1ccc2c(c1)OCO2` stands inactive: 104%; under `O=C(NCCN1CCOCC1)c1ccc2c(c1)OCCO2`, inactive: 93%.
In the case of `Cc1ccc(/C=C/c2onc(C)c2S(=O)(=O)N2CCC(C(=O)N3CCN(c4ccccc4F)CC3)CC2)cc1`, the survival is inactive: 116%.
Under `Cc1cccc(-n2c(C)nc3cc(C(=O)NCCC4=CCCCC4)ccc32)c1` stands inactive: 71%; under `COc1ccc(NC(=O)CCNS(=O)(=O)c2cccc3nsnc23)cc1Cl`, inactive: 63%; under `CC(C)(C)C(=O)NC1CCN(S(=O)(=O)c2ccc(C(F)(F)F)cc2)CC1`, inactive: 96%.
On to `CNC(=O)c1c(O)c2cc(OC)c(OC)cc2[nH]c1=O`, for which the survival was inactive: 99%.
Consider `CCn1c(=O)cc(OCC(=O)N2CCN(c3ccc(OC)cc3)CC2)c2ccccc21`, for which the survival was inactive: 71%.
For the compound `Cc1cccc(-n2ccnc2SCC(=O)Nc2cccc3ccccc23)c1C`, the survival was inactive: 78%.
As to `CCOc1ccc(Nc2nnc(-n3nc(C)cc3C)c3ccccc23)cc1`, the survival was inactive: 132%.
For `COc1ccc(C(=O)Nc2ccc3c(c2)CCCN3C(=O)c2cccs2)c(OC)c1`, the survival is inactive: 87%.
The figure for `COc1cc(OC)c(NC(=O)N2CCCn3nc(C)cc32)cc1Cl` is active: 47%; for `COc1ccc(-c2nnc(SCC(=O)NC3CCCCC3)nc2-c2ccc(OC)cc2)cc1` it is inactive: 89%; for `COCCn1c(C)cc(O)c(C(c2ccccc2)N2CCN(c3ccccc3)CC2)c1=O` (stereo unspecified) it is inactive: 49%.
Under `O=C(Cn1c(=O)n(Cc2ccc3c(c2)OCO3)c(=O)c2oc3ccccc3c21)Nc1ccccc1F` stands inactive: 65%.
